Experimental data taken from PubChem BioAssay AID624173 (National Center for Advancing Translational Sciences (NCATS), 2012).
Hit rate of the full screen: of about 410,000 compounds, about 490 (0.12%) were called active. Inconclusive means that the source gave no clear call. Such entries were picked first, then a sample of the others. The call rests on the fitted dose curve; in most records, active means well fitted inhibition curve with a large enough effect; inconclusive means small, poorly fitted or top-dose-only effect; inactive means flat fitted curve, though single readings scatter. Potencies of inconclusive entries are doubtful fits and often do not repeat.

molecular target: pyruvate kinase (Trypanosoma brucei) (UniProt Q57TT1); assay: qHTS of Trypanosoma Brucei Inhibitors; conditions: TbPYK enzyme, Kinase-Glo Plus ATP luminescence, 45 min; series mostly up to 76.8 µM; further: nearly all actives have a fitted effect of over 50% in size
Method in brief: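 Quantitative HTS: titrated library compounds versus trypanosomal pyruvate kinase in TEA buffer (pH 7.2) containing KCl, MgCl2, BSA and Tween-20. Reactions were initiated with ADP, 130 uM final. Kinase-Glo Plus luminescence was read after 45 min at RT.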
Potency means the concentration at half of the fitted maximal effect; tags describe the fitted curve by direction and shape.

`Cc1ccsc1/C=C1\CCc2ccccc2C1=O` was tested. Which Potency did it give?
The Potency was inconclusive: 25.1 µM [inhibitor, partial curve].

For `Cc1onc(-c2c(F)cccc2Cl)c1C(=O)N1C=CC(C(F)(F)Cl)=NCC1`, which Potency is on record?
Its Potency is inconclusive: 25.1 µM [inhibitor, partial curve, poor fit].

Which Potency does the source give for `FC(F)(F)c1ccccc1Nc1nccs1` here?
Its Potency is inconclusive: 11.2 µM [inhibitor, partial curve].

For `Cc1ccc(S(=O)(=O)N(C)C)cc1NC(=O)COc1cccc(-n2cnnn2)c1`, which Potency is on record?
Its Potency is “inactive”.

For `Cc1ccc(N(CC(O)Cn2c3ccccc3c3ccccc32)S(=O)(=O)c2ccc(F)cc2)cc1` (centres undefined), which Potency is on record?
Its Potency is “inactive”.

For `O=C(NCc1n[nH]c(=S)n1-c1cccc(C(F)(F)F)c1)c1ccc(S(=O)(=O)N2CCCC2)cc1`, which Potency is on record?
Its Potency is inconclusive: 10 µM [inhibitor, partial curve, poor fit].

How did the Potency turn out when `CCC(NC(C)C)C(O)c1ccc(O)c(O)c1` (centres undefined) was run?
The Potency was “inactive”.

For `O=C(Nc1ccccc1C(=O)O)c1cc(S(=O)(=O)Nc2ccccc2)ccc1Cl`, which Potency is on record?
The Potency was “inactive”.

Which Potency does the source give for `O=c1cc(-c2ccccc2)c2c([nH]1)CCCC2` here?
The Potency was inconclusive: 35.5 µM [inhibitor, single point].

With `COc1ccccc1NC(=O)Nc1ccc2c(c1)CCC2` as the compound, how does the Potency read?
The Potency was “inactive”.

`CC(=O)c1c(C)[nH]c(C(=O)N2CCCCCC2)c1C` was tested. Which Potency did it give?
The Potency was inconclusive: 31.6 µM [inhibitor, single point].

How did the Potency turn out when `Cc1ccccc1NC(=O)C(Cc1ccccc1)N1Cc2ccccc2C1=O` (centres undefined) was run?
Its Potency is “inactive”.

Which Potency does the source give for `CN1CCc2cccc3c2[C@H]1Cc1ccc(O)c(O)c1-3` here?
The Potency was inconclusive: 31.6 µM [inhibitor, partial curve, poor fit].

With `CN(c1ccccc1)S(=O)(=O)c1cccc(C(=O)NCCc2ccc(O)c(O)c2)c1` as the compound, how does the Potency read?
Its Potency is inconclusive: 15.8 µM [inhibitor, partial curve, poor fit].

`Cc1ccc(S(=O)(=O)Nc2cccc(-c3ccc(N4CCCC4)nn3)c2)c(C)c1` was tested. Which Potency did it give?
The Potency was inconclusive: 31.6 µM [inhibitor, single point].

Which Potency does the source give for `COc1cc(OC)c(NC(=O)c2csc(C)c2)cc1Cl` here?
The Potency was “inactive”.

For `NC(=O)c1ccc(N2CCN(S(=O)(=O)c3cccs3)CC2)c([N+](=O)[O-])c1`, which Potency is on record?
The Potency was “inactive”.

How did the Potency turn out when `O=C(Nc1ccccc1)C(=O)Nc1ccccn1` was run?
The Potency was inconclusive: 28.2 µM [inhibitor, partial curve, poor fit].

`O=C(O)COc1ccccc1/C=N/n1c(C2CCCCC2)n[nH]c1=S` was tested. Which Potency did it give?
Its Potency is inconclusive: 11.2 µM [inhibitor, partial curve, poor fit].

With `Cc1ccc(-n2c(-c3ccc(Cl)cc3)n[nH]c2=S)c(C)c1` as the compound, how does the Potency read?
The Potency was active: 5.01 µM.

How did the Potency turn out when `Cc1cc(NC(=O)Cn2cc([N+](=O)[O-])cn2)n(Cc2ccc(F)cc2)n1` was run?
The Potency was “inactive”.

`COc1cccc(NC(=O)C2CCN(C(=O)[C@@H]3Cc4ccccc4CN3C(=O)OC(C)(C)C)CC2)c1` was tested. Which Potency did it give?
Its Potency is “inactive”.

Which Potency does the source give for `C=CCNc1sc(C(=O)c2ccccc2)c(N)c1-c1nc2ccccc2s1` here?
The Potency was inconclusive: 10 µM [inhibitor, partial curve].

Which Potency does the source give for `CCn1c(N)c(C(=O)NCC2CCCO2)sc1=S` (centres undefined) here?
The Potency was inconclusive: 11.2 µM [inhibitor, partial curve, poor fit].

For `CC(C)C1Nc2ccc(C(=O)O)cc2C2C=CCC21` (centres undefined), which Potency is on record?
The Potency was inconclusive: 8.91 µM [inhibitor, partial curve, poor fit].

With `Oc1ccc(Br)cc1/C=N/N1CCN(Cc2ccccc2)CC1` as the compound, how does the Potency read?
The Potency was “inactive”.

`COc1ccc(NC(=O)C(=O)NNC(=O)c2cccs2)c(OC)c1` was tested. Which Potency did it give?
Its Potency is “inactive”.

Which Potency does the source give for `COCCn1c(-c2ccco2)nc2nc3ccccc3nc21` here?
Its Potency is “inactive”.

With `O=C(Cn1ncc(Cl)c(Cl)c1=O)Nc1ccc2c(c1)OCO2` as the compound, how does the Potency read?
Its Potency is “inactive”.

How did the Potency turn out when `CC(=O)Nc1nc(=S)n(-c2ccccc2)[nH]1` was run?
Its Potency is inconclusive: 31.6 µM [inhibitor, partial curve, poor fit].

Which Potency does the source give for `Cc1nc2c(-c3ccccc3)c(C)nn2c(C)c1CCC(=O)NCc1ccccc1` here?
The Potency was “inactive”.

Which Potency does the source give for `CCOP1(=S)Oc2cc3c(cc2C(C(=O)OC)(C(F)(F)F)O1)OCO3` (centres undefined) here?
The Potency was inconclusive: 35.5 µM [inhibitor, partial curve, poor fit].

`Cc1cccc(/C=N/n2c(C)nc3ccccc3c2=O)c1` was tested. Which Potency did it give?
Its Potency is “inactive”.

Which Potency does the source give for `O=S(=O)(c1cccc(-c2n[nH]c(=S)n2Cc2ccccc2)c1)N1CCOCC1` here?
The Potency was inconclusive: 5.01 µM [inhibitor, full curve].

For `COC(=O)c1ccc(CSc2nc3ccccc3s2)o1`, which Potency is on record?
The Potency was “inactive”.

How did the Potency turn out when `c1cnc2c(c1)ccc1cccnc12` was run?
Its Potency is “inactive”.

`Cc1ccc(/C=N/n2c(-c3ccccc3)n[nH]c2=S)cc1` was tested. Which Potency did it give?
The Potency was inconclusive: 6.31 µM [inhibitor, full curve].

With `COc1cc(OC)c(OC)cc1/C=N/n1c(-c2n[nH]c3c2CCC3)n[nH]c1=S` as the compound, how does the Potency read?
Its Potency is active: 2.51 µM.

How did the Potency turn out when `O=C(Nc1ccc(F)c(Cl)c1)c1cncs1` was run?
Its Potency is “inactive”.

Which Potency does the source give for `Cc1ccc(OCc2nnc(SCC(=O)c3ccccc3)n2Cc2ccco2)cc1` here?
Its Potency is inconclusive: 14.1 µM [inhibitor, partial curve].

How did the Potency turn out when `CN(CCCNC(=O)c1cc2c(=O)n(C)c3ccccc3c2s1)Cc1ccccc1` was run?
The Potency was “inactive”.

For `O=C(CSc1ccccc1)NCc1ccccc1`, which Potency is on record?
The Potency was “inactive”.

With `O=C(CCC(=O)c1cccs1)NNC(=O)c1cccc(Cl)c1` as the compound, how does the Potency read?
Its Potency is “inactive”.

How did the Potency turn out when `C=CCNC(=S)NNC(=O)COc1ccc(Br)cc1` was run?
The Potency was inconclusive: 44.7 µM [inhibitor, partial curve, poor fit].

How did the Potency turn out when `O=C1c2ccccc2C(Nc2ccc(S(=O)(=O)N3CCCCC3)cc2)N1Cc1ccco1` (centres undefined) was run?
The Potency was inconclusive: 31.6 µM [inhibitor, partial curve, poor fit].

Which Potency does the source give for `Cc1cccc(C)c1NCc1n[nH]c(=S)n1-c1ccccc1` here?
The Potency was inconclusive: 5.01 µM [inhibitor, partial curve, poor fit].

For `S=c1[nH]ncn1NCc1cccc(Br)c1`, which Potency is on record?
Its Potency is inconclusive: 11.2 µM [inhibitor, partial curve, poor fit].

For `CC[N+](C)(CC)CCCCOc1ccc2c(c1)C(=O)c1cc(OCCCC[N+](C)(CC)CC)ccc1-2`, which Potency is on record?
Its Potency is inconclusive: 35.5 µM [inhibitor, single point].

How did the Potency turn out when `CCOc1ccc(N/C=C/C(=O)c2ccc(OC)c(OC)c2)cc1` was run?
The Potency was “inactive”.
